About 14,000 (4.5%) of roughly 310,000 compounds showed an effect of 50% or more. Effects have a minus sign here. Some of the results follow.
These molecules were tested against human ether-à-go-go-related gene (hERG) potassium channel (human, UniProt Q12809) (assay: primary screen, population patch clamp on CHO cells stably expressing hERG).
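Note: peak tail current of the secondary pulse compared with the same well before compound.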

human ether-à-go-go-related gene (hERG) potassium channel, sequence (Q12809 whole entry, looked up): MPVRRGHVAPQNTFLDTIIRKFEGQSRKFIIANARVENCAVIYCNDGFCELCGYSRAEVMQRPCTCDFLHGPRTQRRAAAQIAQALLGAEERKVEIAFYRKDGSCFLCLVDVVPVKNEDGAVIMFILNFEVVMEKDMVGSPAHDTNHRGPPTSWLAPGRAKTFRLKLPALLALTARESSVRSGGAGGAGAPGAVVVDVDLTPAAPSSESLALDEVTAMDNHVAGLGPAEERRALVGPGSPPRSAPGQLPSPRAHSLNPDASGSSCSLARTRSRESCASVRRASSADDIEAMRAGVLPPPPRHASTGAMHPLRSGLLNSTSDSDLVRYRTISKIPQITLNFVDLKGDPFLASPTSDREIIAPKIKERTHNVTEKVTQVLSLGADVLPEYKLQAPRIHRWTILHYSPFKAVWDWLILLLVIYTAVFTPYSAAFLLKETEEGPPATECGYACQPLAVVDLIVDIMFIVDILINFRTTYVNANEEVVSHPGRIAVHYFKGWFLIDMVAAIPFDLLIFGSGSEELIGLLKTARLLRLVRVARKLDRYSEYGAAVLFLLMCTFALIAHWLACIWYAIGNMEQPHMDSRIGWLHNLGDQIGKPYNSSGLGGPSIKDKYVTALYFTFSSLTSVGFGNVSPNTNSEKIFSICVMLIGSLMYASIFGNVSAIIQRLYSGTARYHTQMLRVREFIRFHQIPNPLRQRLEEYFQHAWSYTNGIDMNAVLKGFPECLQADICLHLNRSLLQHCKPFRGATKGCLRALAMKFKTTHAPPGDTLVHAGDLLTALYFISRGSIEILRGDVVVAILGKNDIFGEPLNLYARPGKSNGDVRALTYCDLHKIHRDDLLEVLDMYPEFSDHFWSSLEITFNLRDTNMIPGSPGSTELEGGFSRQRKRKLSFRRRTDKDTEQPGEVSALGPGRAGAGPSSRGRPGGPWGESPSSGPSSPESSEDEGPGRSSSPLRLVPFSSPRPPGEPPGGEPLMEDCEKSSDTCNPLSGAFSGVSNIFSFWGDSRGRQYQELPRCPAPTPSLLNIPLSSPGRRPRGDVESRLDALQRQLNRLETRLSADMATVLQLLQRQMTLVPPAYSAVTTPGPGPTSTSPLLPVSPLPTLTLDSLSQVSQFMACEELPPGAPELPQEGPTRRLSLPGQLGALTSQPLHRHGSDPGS

SMILES | hERG current change (%, negative = inhibition) at 10uM [%]
CS(=O)(=O)Nc1cccc(C2=NN(C(=O)CCCC(=O)O)C(c3cccs3)C2)c1 (centres unmarked) | 15
COCC1CCCN(C(=O)c2ccc3nc(Cc4cccc(Cl)c4)oc3c2)C1 (centres unmarked) | -12.6
Cc1cc(/C=N\NC(=O)CC(=O)NC2CCCCC2)c(C)n1-c1cccc(Cl)c1Cl | -19.6
COc1ccc2occ(C(=O)c3ccc(N)cc3)c2c1 | 2.02
Cc1cccc(-n2nc(C(=O)Nc3ccccc3)n3c(=O)cc(-c4ccccc4)nc23)c1 | 4.51
CC(=O)Oc1ccc(-c2ccc(C(=O)Nc3cccc(S(=O)(=O)N4CCOCC4)c3)cc2)cc1 | 26.5
Cc1cc(C)cc(C(=O)OCC(=O)NCCNC(=O)COC(=O)c2cc(C)cc(C)c2)c1 | 14.2
Clc1ccc(Nc2ncnc3c2nnn3Cc2ccccc2)cc1 | -2.53
C/C(=N\NC(=O)c1ccc(Cn2cc(Br)cn2)o1)c1cccc(NC(=O)C(C)C)c1 | -19.1
CNc1oc(C)nc1S(=O)(=O)c1ccc(C)cc1 | 10.6
COc1ccccc1NS(=O)(=O)c1ccc2nc(CCl)[nH]c2c1 | 13.2
COc1ccc(NC(=O)Cn2c(=O)n(-c3ccccc3)c(=O)c3oc4ccccc4c32)c(OC)c1 | 0.0652
COC(=O)CN1C(=O)C(C)(C)Oc2ccc(C(=O)Nc3ccccc3F)cc21 | 6.87
OCCN(Cc1ccccc1)Cc1ccc(F)c(F)c1 | -14.9
O=C(NC(C1CC1)C1CC1)C1CCC(=O)N(CCCN2CCCC2=O)C1 (centres unmarked) | -2.49
CCC(=O)Nc1sc(C(=O)Nc2ccccc2OC)c(C)c1C(=O)OC | 12.5
CCOC(=O)c1ccccc1NC(=O)Cn1c(-c2nonc2N)nc2ccccc21 | -9.37
CN(C)c1ccc(-c2nnc(-c3ccccc3F)o2)cc1 | -8.59
O=C(c1ccccc1)N1CCN(c2n[nH]c(=O)[nH]c2=O)CC1 | -0.701
COc1ccc(-n2ncc3c(N4CCCCC4)ncnc32)cc1 | -4.13
CCN(CC)C(=O)CSc1nnc(-c2ccc(S(=O)(=O)NCc3ccccc3Cl)cc2)o1 | -3.93
COc1ccccc1N(C)S(=O)(=O)c1ccc(C(=O)OCC(=O)N2CCC2)cc1 | 2.78

SMILES | hERG current change (%, negative = inhibition) at 10uM [%]
COC(=O)C1=C(c2ccc(C(C)=O)cc2)C[C@@H]2CC[C@H]1N2C | -17.5
COc1ccc(NC(=O)CCNS(=O)(=O)c2cccc(C(C)=O)c2)cc1S(N)(=O)=O | 18.1
COc1cccc(CNC(=O)CCS(=O)(=O)c2cccc3nonc23)c1 | 11.2
CCC1CN(C(=O)NCc2ccc(C)cc2)c2ccccc2O1 (centres unmarked) | -36.5
CC1=C(C(=O)Nc2ccc(C)cc2C)C(c2ccc(Cl)cc2)n2nc(C(=O)OC(C)C)nc2N1 (centres unmarked) | 5.71
CC(=O)N1CCN(C(=O)COc2ccc(Br)cc2)CC1 | -17.8
O=c1[nH]c(=S)[nH]c2nc(-c3cccs3)cc(C(F)(F)F)c12 | 19.7
CCCSc1ccc(C(=O)Nc2ccc(F)cc2F)cn1 | 14.5
CSc1nc2ccc(NC(=O)C3=NNC(=O)CC3)cc2s1 | 5.4
O=C(CCCN1C(=O)c2ccccc2C1=O)NCCc1ccc(OC(F)F)cc1 | -65.3
COc1cccc(NC(=O)N2CCCC2C(=O)Nc2cc(C)ccc2OC)c1 (centres unmarked) | -2.44
CC1CCc2sc3ncnc(N4CCN(CCO)CC4)c3c2C1 (centres unmarked) | -33.6
COc1cc(/C=C/c2c([N+](=O)[O-])c(=O)n(C)c(=O)n2C)cc(OC)c1OC | 8.3
CC(=O)c1ccc(NC(=O)C(=O)c2cn(CC(=O)N3CCCCC3)c3ccccc23)cc1 | 6.65
COc1cccc(C(=O)Nc2nnc(C(C)C)s2)c1 | 1.38
O=C(Nc1ccc(F)cc1)N(CCCN1CCOCC1)Cc1cc2cc3c(cc2[nH]c1=O)OCCO3 | -25.1
CC(=O)c1ccc(OCC(O)CN2CCN(S(=O)(=O)c3c(C)c(C)cc(C)c3C)CC2)cc1 (centres unmarked) | 20.5
Cc1[nH]n(-c2ccccc2)c(=O)c1N=Nc1c(Cl)cccc1Cl | 16.3
CCn1cc(C(=O)NCc2ccc3c(c2)OCO3)c(=O)c2cc(S(=O)(=O)N3CCOCC3)ccc21 | -12.6
CCOC(=O)NC(NCc1ccccc1Cl)(C(F)(F)F)C(F)(F)F | -4.23
N#C/C(=C\c1cn[nH]c1-c1ccccc1)C(=O)NC1CCCCCC1 | -34
CCCc1nc2sc3c(=O)n(N)cnc3c2c2c1CCCC2 | 9.79

SMILES | hERG current change (%, negative = inhibition) at 10uM [%]
COC(=O)c1cc(CSc2ncnc3sccc23)oc1C | 16.6
CNCC(C)COc1ccccc1OCc1ccccc1.O=C(O)/C=C\C(=O)O (centres unmarked) | -32.9
CC(Oc1ccc(F)cc1)C(=O)Nc1ccccc1C(=O)NC1CC1 (centres unmarked) | -27.6
Cc1ccccc1-c1cc(-c2ccccc2O)on1 | -4.7
NC(=O)[C@@H]1CCCN1Cc1nc(-c2ccccc2)no1 | 11.5
CCC(C)(C)NC(=O)C1c2ccccc2Oc2ccccc21 | 23
CCNc1c(NC(=O)c2ccc3c(c2)OCO3)c(=O)oc2ccccc12 | 18.6
CCOC(=O)Nc1ccc(S(=O)(=O)N2CCC(C)CC2)cc1 | -7.86
CCn1c(=S)sc2nc(C)sc21 | 1.32
CCC(=O)N1CCCc2cc(S(=O)(=O)N3CCN(C4CCCCC4)CC3)ccc21 | -27
O=C(CSc1ncnc2sc3c(c12)CCCC3)c1ccco1 | 6.66
COc1cccc(-c2nc(COc3ccc(Cl)cc3Cl)no2)c1 | 4.12
O=C(c1cccc(Cl)c1)N1CCC2(CC1)NCCc1[nH]cnc12 | 19.6
CCN(CC)C(=O)c1ccc(Cn2cc([N+](=O)[O-])cn2)o1 | -13.1
CC(=O)Nc1ccc(C2C(=O)c3ccccc3C2=O)cc1 | 21.4
C/C=C(\C)C(=O)NCCN1C2=NC[C@@H](C)N2C[C@H]1Cc1ccc(O)cc1 | 12.9
O=C(/C=C/c1ccco1)N1CCN(C/C=C/c2ccccc2)CC1 | -58.8
CC(Sc1nc(-c2ccccc2)cc(C(F)(F)F)n1)C(=O)Nc1sc2c(c1C(N)=O)CCC2 (centres unmarked) | 8.35
COc1ccc(/C=N/NC(=O)CNC(=O)c2ccc(S(=O)(=O)N3CCOCC3)cc2)c(OC)c1 | -6.47
Cc1cc(C)c(S(=O)(=O)c2ccccc2C)c(OCCN(C)C)n1 | -20.2
Cc1ccccc1NC(=O)Cn1nc(-c2ccccc2)nc1-c1ccccc1 | -7.03
CC(=O)c1cccc(S(=O)(=O)N(CCCO)Cc2cc3ccc(C)cc3[nH]c2=O)c1 | -5.88

SMILES | hERG current change (%, negative = inhibition) at 10uM [%]
C/C(=C\c1ccco1)CN1CCC(N2CCC(C(=O)N3CCOCC3)CC2)CC1 | -78.9
C=CCNc1nc2c(c(=O)[nH]c(=O)n2C)n1CCCc1ccccc1 | -4.44
COc1cc(-c2noc(C)c2C(=O)NCCc2c[nH]c3ccccc23)cc(OC)c1OC | 0.397
N#CC1=C2SCN(Cc3ccccc3)CN2C(=O)CC1c1ccccc1F (centres unmarked) | 10.9
COc1ccc(S(=O)(=O)N2CCCC2C(=O)Nc2nnc(-c3cccnc3)s2)cc1 (centres unmarked) | 5.55
CCCC1(C(=O)OCC)NC(c2ccc(N(C)C)cc2)C2C(=O)N(c3ccccc3)C(=O)C21 (centres unmarked) | -10.3
CC1(C)Cc2c(sc(NC(=O)/C=C/C(=O)O)c2C#N)CO1 | 20
CCOc1ccccc1NC(=S)NCC1CCCO1 (centres unmarked) | 0.812
CCC1CCCCN1S(=O)(=O)c1ccccc1[N+](=O)[O-] (centres unmarked) | 20.3
N#Cc1ccc(CSCC(=O)NN=C2CCCC2)cc1 | 4.16
CCC1CN(C(=O)N2CCC(C(=O)NCc3ccc(C)o3)CC2)c2cc(C)ccc2O1 (centres unmarked) | -18.1
C=CCOc1c2ccc(C(=O)NC3CCCc4ccccc43)cc2nn1C (centres unmarked) | -1.02
O=S(=O)(Nc1ccccn1)c1cccc(S(=O)(=O)c2ccc(Br)cc2)c1 | 1.32
COc1cc(NC(=O)c2cccs2)ccc1NC(=O)c1ccccc1Cl | 5.34
COc1ccc(C(=O)CC(=O)c2ccc(OC)cc2)cc1 | 19.5
COc1cccc(NC(=O)CSc2ccc(-c3sc(C)nc3C)nn2)c1 | 18.3
O=C(NCc1ccc(F)cc1)C(c1ccccc1)N(C(=O)c1csnn1)C1CCCC1 (centres unmarked) | -2.42
O=C(CN1C(=O)CNC1=O)Nc1cccc(C(F)(F)F)c1 | 8.56
O=C(O)c1ccc(NC(=S)NC(=O)c2cccnc2)cc1 | 20.8
CS(=O)(=O)c1cccc(-c2nnc(NC(=O)C3=COCCO3)o2)c1 | -8.49

— article PMC4336329 (PLoS ONE, 2015)
